Some of the results follow.
Legend:
Assay in all cases: glycan array binding signal (z-score within array); higher = stronger binding
Conditions in all cases: glycan notation: IUPAC condensed, linker removed
[1] = target: GalNAc(a1-3)GalNAc(b1-3)Gal(a1-4)Gal(b1-4)GlcNAc
In short: (§1)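 Glycan array data came from 3228 arrays in the Consortium for Functional Glycomics database, and only arrays with an available protein sequence were kept. Glycan names were put into IUPAC-condensed notation, and columns mapping to the same glycan were averaged. The binding signal is a within-array Z-score, averaged across arrays of one protein sequence run at different concentrations or buffers and across linkers. A negative Z-score can be read as non-binding.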

GalNAc(b1-3)Gal = target: GalNAc(b1-3)Gal
In short: as §1

[2] = target: GalNAc(b1-3)Gal(a1-4)Gal(b1-4)GlcNAc
In short: as §1

[3] = target: GalNAc(b1-3)Gal(a1-4)Gal(b1-4)GlcNAc(b1-3)Gal(b1-4)Glc
In short: as §1

[4] = target: GalNAc(b1-3)Gal(a1-6)Gal(b1-4)Glc
In short: as §1

GalNAc(b1-3)GalNAc = target: GalNAc(b1-3)GalNAc
In short: as §1

GalNAc(b1-4)Gal(b1-4)Glc = target: GalNAc(b1-4)Gal(b1-4)Glc
In short: as §1

GalNAc(b1-4)GlcNAc = target: GalNAc(b1-4)GlcNAc
In short: as §1

[5] = target: GalNAc(b1-4)GlcNAc(b1-2)Man(a1-3)[GalNAc(b1-4)GlcNAc(b1-2)Man(a1-6)]Man(b1-4)GlcNAc(b1-4)GlcNAc
In short: as §1

GalNAc(b1-4)GlcNAc6S = target: GalNAc(b1-4)GlcNAc6S
In short: as §1

GalNAc(b1-6)GalNAc = target: GalNAc(b1-6)GalNAc
In short: as §1

GalNAc3S(b1-4)GlcNAc = target: GalNAc3S(b1-4)GlcNAc
In short: as §1

GalNAc3S(b1-4)GlcNAc3S = target: GalNAc3S(b1-4)GlcNAc3S
In short: as §1

GalNAc4S6S(b1-4)GlcNAc = target: GalNAc4S6S(b1-4)GlcNAc
In short: as §1

GalNAc6S(b1-4)GlcNAc = target: GalNAc6S(b1-4)GlcNAc
In short: as §1

Glc(a1-4)Glc = target: Glc(a1-4)Glc
In short: as §1

[6] = target: Glc(a1-4)Glc(a1-4)Glc(a1-4)Glc
In short: as §1

Glc(a1-6)Glc(a1-6)Glc = target: Glc(a1-6)Glc(a1-6)Glc
In short: as §1

[7] = target: Glc(a1-6)Glc(a1-6)Glc(a1-6)Glc
In short: as §1

Glc(b1-4)Glc = target: Glc(b1-4)Glc
In short: as §1

Glc(b1-6)Glc = target: Glc(b1-6)Glc
In short: as §1

GlcA(b1-3)Gal = target: GlcA(b1-3)Gal
In short: as §1

GlcA(b1-3)GlcNAc = target: GlcA(b1-3)GlcNAc
In short: as §1

GlcA(b1-6)Gal = target: GlcA(b1-6)Gal
In short: as §1

[8] = target: GlcNAc(a1-3)Gal(b1-4)GlcNAc
In short: as §1

[9] = target: GlcNAc(a1-4)Gal(b1-3)GlcNAc
In short: as §1

[10] = target: GlcNAc(a1-4)Gal(b1-4)GalNAc
In short: as §1

[11] = target: GlcNAc(a1-4)Gal(b1-4)GlcNAc
In short: as §1

[12] = target: GlcNAc(a1-4)Gal(b1-4)GlcNAc(b1-3)Gal(b1-4)Glc
In short: as §1

[13] = target: GlcNAc(a1-4)Gal(b1-4)GlcNAc(b1-3)Gal(b1-4)GlcNAc
In short: as §1

[14] = target: GlcNAc(a1-4)Gal(b1-4)GlcNAc(b1-3)Gal(b1-4)GlcNAc(b1-3)Gal(b1-4)GlcNAc
In short: as §1

[15] = target: GlcNAc(a1-4)Gal(b1-4)GlcNAc(b1-3)Gal(b1-4)[Fuc(a1-3)]GlcNAc(b1-3)Gal(b1-4)[Fuc(a1-3)]GlcNAc
In short: as §1

[16] = target: GlcNAc(a1-6)Gal(b1-4)GlcNAc
In short: as §1

[17] = target: GlcNAc(b1-2)Gal(b1-3)GalNAc
In short: as §1

[18] = target: GlcNAc(b1-2)Man(a1-3)[GlcNAc(b1-2)Man(a1-6)]Man(b1-4)GlcNAc(b1-4)GlcNAc
In short: as §1

[19] = target: GlcNAc(b1-2)Man(a1-3)[GlcNAc(b1-2)Man(a1-6)]Man(b1-4)GlcNAc(b1-4)[Fuc(a1-6)]GlcNAc
In short: as §1

[20] = target: GlcNAc(b1-2)Man(a1-3)[GlcNAc(b1-4)][GlcNAc(b1-2)Man(a1-6)]Man(b1-4)GlcNAc(b1-4)GlcNAc
In short: as §1

[21] = target: GlcNAc(b1-2)[GlcNAc(b1-4)]Man(a1-3)[GlcNAc(b1-2)Man(a1-6)]Man(b1-4)GlcNAc(b1-4)GlcNAc
In short: as §1

[22] = target: GlcNAc(b1-2)[GlcNAc(b1-4)]Man(a1-3)[GlcNAc(b1-4)][GlcNAc(b1-2)Man(a1-6)]Man(b1-4)GlcNAc(b1-4)GlcNAc
In short: as §1

[23] = target: GlcNAc(b1-2)[GlcNAc(b1-4)]Man(a1-3)[GlcNAc(b1-4)][GlcNAc(b1-2)[GlcNAc(b1-6)]Man(a1-6)]Man(b1-4)GlcNAc(b1-4)GlcNAc
In short: as §1

[24] = target: GlcNAc(b1-2)[GlcNAc(b1-4)]Man(a1-3)[GlcNAc(b1-4)][GlcNAc(b1-2)[GlcNAc(b1-6)]Man(a1-6)]Man(b1-4)GlcNAc(b1-4)[Fuc(a1-6)]GlcNAc
In short: as §1

[25] = target: GlcNAc(b1-2)[GlcNAc(b1-6)]Man(a1-6)[GlcNAc(b1-2)Man(a1-3)]Man(b1-4)GlcNAc(b1-4)GlcNAc
In short: as §1

[26] = target: GlcNAc(b1-2)[GlcNAc(b1-6)]Man(a1-6)[GlcNAc(b1-2)Man(a1-3)]Man(b1-4)GlcNAc(b1-4)[Fuc(a1-6)]GlcNAc
In short: as §1

[27] = target: GlcNAc(b1-2)[GlcNAc(b1-6)]Man(a1-6)[GlcNAc(b1-2)Man(a1-3)][GlcNAc(b1-4)]Man(b1-4)GlcNAc(b1-4)GlcNAc
In short: as §1

GlcNAc(b1-3)Gal = target: GlcNAc(b1-3)Gal
In short: as §1

B1: OrfX (Escherichia coli), Q9X4B6_ECOLX (protein)
chain: MIKIARIAVTLGLLSSLGAQAYAAGLVVNDNDLRNDLAWLSDRGVIHLSLSTWPLSQEEIARALKKAKPSYSSEQVVLARINQRLSALKADFRVTGYTSTDQPGTPQGFGQTQPADNSLGLAFNNSGEWWDVHLQGNVEGGERISNGSRFNANGAYGAVKFWNQWLSFGQVPQWWGPGYEGSLIRGDAMRPMTGFLMQRAEQAAPETWWLRWVGPWQYQISASQMNQYTAVPHAKIIGGRFTFTPFQSLELGASRIMQWGGEGRPQSFSSFWDGFTGHDNTGTDNEPGNQLAGFDFKFKLEPTLGWPVSFYGQMVGEDESGYLPSANMFLGGVEGHHGWGKDTVNWYVEAHDTRTNMSRTNYSYTHHIYKDGYYQQGYPLGDAMGGDGQLIAGKVELITEDNQRWSTRLVYAKVNPENQSINKAFPHADTLKGLQLGWSGDVYQSVRLNTSLWYTNANNSDSDDVGASAGIEIPFSL
- glycan array binding signal (z-score) [1]: -0.374
- glycan array binding signal (z-score) (GalNAc(b1-3)Gal): -0.22
- glycan array binding signal (z-score) [2]: -0.088
- glycan array binding signal (z-score) [3]: -0.218
- glycan array binding signal (z-score) [4]: -0.264
- glycan array binding signal (z-score) (GalNAc(b1-3)GalNAc): -0.076
- glycan array binding signal (z-score) (GalNAc(b1-4)Gal(b1-4)Glc): 0.667
- glycan array binding signal (z-score) (GalNAc(b1-4)GlcNAc): -0.182
- glycan array binding signal (z-score) [5]: -0.409
- glycan array binding signal (z-score) (GalNAc(b1-4)GlcNAc6S): -0.108
- glycan array binding signal (z-score) (GalNAc(b1-6)GalNAc): -0.231
- glycan array binding signal (z-score) (GalNAc3S(b1-4)GlcNAc): -0.23
- glycan array binding signal (z-score) (GalNAc3S(b1-4)GlcNAc3S): -0.14
- glycan array binding signal (z-score) (GalNAc4S6S(b1-4)GlcNAc): -0.183
- glycan array binding signal (z-score) (GalNAc6S(b1-4)GlcNAc): -0.318
- glycan array binding signal (z-score) (Glc(a1-4)Glc): 0.014
- glycan array binding signal (z-score) [6]: 0.149
- glycan array binding signal (z-score) (Glc(a1-6)Glc(a1-6)Glc): -0.074
- glycan array binding signal (z-score) [7]: 0.415
- glycan array binding signal (z-score) (Glc(b1-4)Glc): -0.058
- glycan array binding signal (z-score) (Glc(b1-6)Glc): 0.039
- glycan array binding signal (z-score) (GlcA(b1-3)Gal): 0.363
- glycan array binding signal (z-score) (GlcA(b1-3)GlcNAc): -0.214
- glycan array binding signal (z-score) (GlcA(b1-6)Gal): -0.297
- glycan array binding signal (z-score) [8]: 0.138
- glycan array binding signal (z-score) [9]: -0.225
- glycan array binding signal (z-score) [10]: 1.49
- glycan array binding signal (z-score) [11]: -0.104
- glycan array binding signal (z-score) [12]: -0.135
- glycan array binding signal (z-score) [13]: 1.76
- glycan array binding signal (z-score) [14]: -0.324
- glycan array binding signal (z-score) [15]: 10.6
- glycan array binding signal (z-score) [16]: -0.119
- glycan array binding signal (z-score) [17]: -0.059
- glycan array binding signal (z-score) [18]: -0.178
- glycan array binding signal (z-score) [19]: 0.125
- glycan array binding signal (z-score) [20]: -0.23
- glycan array binding signal (z-score) [21]: -0.239
- glycan array binding signal (z-score) [22]: -0.208
- glycan array binding signal (z-score) [23]: -0.335
- glycan array binding signal (z-score) [24]: -0.389
- glycan array binding signal (z-score) [25]: -0.098
- glycan array binding signal (z-score) [26]: -0.322
- glycan array binding signal (z-score) [27]: -0.197
- glycan array binding signal (z-score) (GlcNAc(b1-3)Gal): -0.257

— the supplement of paper PMC8728848
